Experimental data from PMC4336329 (PLoS ONE, 2015).
About 2,200 (0.71%) of roughly 310,000 compounds showed an effect of 50% or more. Effects have a minus sign here. The list shows a part of the results.

What follows are molecules tested against human ether-à-go-go-related gene (hERG) potassium channel (human, UniProt Q12809) (assay: primary screen, population patch clamp on CHO cells stably expressing hERG).
Sequence of human ether-à-go-go-related gene (hERG) potassium channel (Q12809 whole entry, looked up): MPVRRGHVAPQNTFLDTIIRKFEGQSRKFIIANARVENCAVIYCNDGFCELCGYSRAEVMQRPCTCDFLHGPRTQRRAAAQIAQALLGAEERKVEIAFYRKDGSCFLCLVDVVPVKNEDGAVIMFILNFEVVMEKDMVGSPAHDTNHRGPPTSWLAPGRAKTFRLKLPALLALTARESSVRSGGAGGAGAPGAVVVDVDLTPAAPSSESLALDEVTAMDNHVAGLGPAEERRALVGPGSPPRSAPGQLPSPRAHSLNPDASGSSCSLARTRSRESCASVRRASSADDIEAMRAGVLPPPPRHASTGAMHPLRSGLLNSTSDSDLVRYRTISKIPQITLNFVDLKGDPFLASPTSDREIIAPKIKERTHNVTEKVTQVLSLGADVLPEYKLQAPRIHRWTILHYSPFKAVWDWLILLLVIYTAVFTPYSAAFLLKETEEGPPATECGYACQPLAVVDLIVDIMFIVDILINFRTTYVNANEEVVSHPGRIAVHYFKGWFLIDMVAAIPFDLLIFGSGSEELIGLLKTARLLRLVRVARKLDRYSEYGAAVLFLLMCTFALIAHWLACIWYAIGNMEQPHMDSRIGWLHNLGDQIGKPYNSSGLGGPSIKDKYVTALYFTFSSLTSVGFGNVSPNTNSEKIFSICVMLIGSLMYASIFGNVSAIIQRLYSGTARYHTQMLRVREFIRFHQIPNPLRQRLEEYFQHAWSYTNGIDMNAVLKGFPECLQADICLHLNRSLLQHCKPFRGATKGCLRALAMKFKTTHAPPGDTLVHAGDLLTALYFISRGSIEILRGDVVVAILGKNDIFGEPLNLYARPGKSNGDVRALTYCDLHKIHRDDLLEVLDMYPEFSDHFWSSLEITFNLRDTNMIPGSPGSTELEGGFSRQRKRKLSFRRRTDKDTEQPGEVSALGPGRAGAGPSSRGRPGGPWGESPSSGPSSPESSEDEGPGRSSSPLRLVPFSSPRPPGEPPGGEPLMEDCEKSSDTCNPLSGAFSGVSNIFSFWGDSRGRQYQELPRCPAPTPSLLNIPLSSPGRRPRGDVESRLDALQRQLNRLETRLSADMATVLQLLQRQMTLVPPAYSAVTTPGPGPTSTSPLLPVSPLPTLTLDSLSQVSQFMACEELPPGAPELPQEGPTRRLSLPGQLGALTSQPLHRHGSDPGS

Structure (SMILES)	hERG current change (%, negative = inhibition) at 1uM
CC(=O)Nc1c2c(nn1-c1cccc(Cl)c1)CS(=O)C2 (centres unmarked)	11.9%
CC(=O)OC[C@]1(OC(C)=O)C[C@@]23CC[C@H]4[C@@](C)(CCC[C@@]4(C)C(=O)O)[C@@H]2CC[C@@H]1C3	12.1%
Cc1cc(OCC(=O)NC2CCS(=O)(=O)C2)c2c3c(c(=O)oc2c1)CCC3 (centres unmarked)	6.44%
COc1ccc(CN(C(=O)c2cccc(OC)c2)C2CCS(=O)(=O)C2)cc1 (centres unmarked)	5.26%
CCCCCCCCNC1=CC(=O)CC(C)(C)C1	15.4%
O=S(=O)(Nc1ccc(N2CCOCC2)cc1)c1ccc2ccccc2c1	5.12%
Cc1ccc(S(=O)(=O)c2cnc3cc(C)nn3c2N)cc1	2.93%
Cc1coc2cc3oc(=O)c(Cc4ccccc4)c(C)c3cc12	21.3%
Cc1c(C(=O)N2CCc3ccccc3C2)oc2ccc(S(=O)(=O)N3CCCCCC3)cc12	-3.14%
CCN(CC)c1ccc2c(C)c(-c3ccc(N)cc3)c(=O)oc2c1	6.42%
CCOC(CNc1ncnc2sc(-c3ccccc3)cc12)OCC	15.6%
O=C(O)C1C2C=CC(O2)C1C(=O)NCCC1=CCCCC1 (centres unmarked)	1.52%
C#CCOc1c(Cl)cc(/C=C2/C(=O)ON=C2C)cc1OC	15.4%
O=C1c2cccc3c(N4CCCCC4)ccc(c23)C(=O)N1c1ccc(O)cc1	12.7%
C(=N\NC(=Nc1ccccc1)c1ccccn1)/c1ccccn1	8.11%
Cc1ccc(OCCn2c(SCCO)nc3c(N)ncnc32)cc1	4.54%
CCC(C(=O)NCCCN1CCOCC1)n1c2ccccc2c2nc(=O)cc(C)n21 (centres unmarked)	7.11%
COc1ccc(-c2cc(N)n(S(=O)(=O)c3ccc(F)cc3)n2)cc1OC	16.2%
Cc1ccc(NC(=O)CN(C)C(=O)C(C)N2CCN(Cc3ccccc3C)CC2)cc1 (centres unmarked)	1.75%

Structure (SMILES)	hERG current change (%, negative = inhibition) at 1uM
CCOc1ccccc1N(C)S(=O)(=O)c1ccc2c(c1)CC(C)N2C(=O)C1CC1 (centres unmarked)	7.72%
O=C(CSc1ccc(Cl)cc1)NNC(=O)c1cccnc1	4.33%
CNC(=S)N1N=C(c2ccc(C)cc2)CC1c1ccc(N(C)C)cc1 (centres unmarked)	10.5%
CCN1CCN(C(=O)C2CCN(C(=O)c3cc4sccc4n3CC)CC2)CC1	8.39%
CC(C)CN(C(=O)COC(=O)c1ccc2c(c1)OCCO2)c1c(N)n(Cc2ccccc2)c(=O)[nH]c1=O	16.1%
O=c1c2c3c(sc2[nH]c(=S)n1Cc1ccco1)CCC3	14.4%
O=C(NC1CCCC1)c1ccc(Cn2c(=O)[nH]c3ccsc3c2=O)cc1	8.75%
O=C(N/N=C/c1ccco1)c1ccc(NC(=O)c2ccc(Cl)cc2)cc1	15.1%
COc1ccc(-c2cc(=O)oc3c(C)c(OC(=O)c4cccs4)ccc23)cc1	18.2%
Fc1ccc(-n2cc(CNCCc3cccnc3)c(-c3ccccc3Cl)n2)cc1	-10%
Cc1ccc(Cn2nc(C)c(NC(=O)c3cc(-c4ccco4)on3)c2C)cc1	-0.169%
CCCCn1c(N)c(N(CCC(C)C)C(=O)c2cc(Cl)nc3ccccc23)c(=O)[nH]c1=O	5.29%
Cc1ccc(/C=N/n2c(C)nc3ccccc3c2=O)o1	10.2%
O=C1C=C(c2cccc3c2oc2ccccc23)C[C@@H](c2ccc(F)cc2)C1	-7.31%
CC1CCCCC1NC1=NCCCS1 (centres unmarked)	14.1%
C#CCSc1nnc(-c2c[nH]c3ccccc23)n1C	15.1%
CCCC1=C(C(=O)OCC)C(c2ccco2)n2ncnc2N1 (centres unmarked)	11%
CC1=CCC2C(=O)N(c3cccc(C(=O)NC(C)c4ccccc4)c3)C(=O)C2C1 (centres unmarked)	9.7%
CCC(C)NC(=O)[C@H](CSCc1ccccc1)N1Cc2ccccc2C1=O (some centres unmarked)	-12.2%

Structure (SMILES)	hERG current change (%, negative = inhibition) at 1uM
CCCCn1c(O)c(C(CC)=Nc2ccc(OC)cc2OC)c(=O)[nH]c1=O	4.73%
O=C(c1ccccc1)N1CCN(C(=O)c2ccc([N+](=O)[O-])cc2)CC1	-4.32%
CN(C)Cc1nc2c(c(=O)[nH]1)C(C)(C)Cc1ccccc1-2	0.776%
Cc1sc(N/N=C/c2cccnc2)nc1-c1ccc(Cl)cc1	9.56%
CC1CN(S(=O)(=O)c2ccc(C(=O)O)cc2)CC(C)O1 (centres unmarked)	13.7%
O=C(Nc1cccc2c1CCCC2)c1cc([N+](=O)[O-])ccc1Cl	-0.62%
Cc1csc(NC(=O)c2ccc3c(=O)n4c(nc3c2)CCCCC4)n1	-35.7%
COc1ccc(C(=O)CN2CCN(c3cc(C)nc4ccccc34)CC2)cc1	-22.1%
Cc1ccc2oc(=O)c3cnn(CC(=O)NCCc4ccsc4)c3c2c1	4.49%
Fc1ccc(-c2noc(-c3ccc4c(c3)CCO4)n2)cc1	-0.996%
Cc1ccc(S(=O)(=O)NCCCNS(=O)(=O)c2ccc(C)cc2)cc1	11%
COc1ccccc1CN1CC(C(=O)NCCN2CCNC2=O)CCC1=O (centres unmarked)	15.8%
O=C(Nc1ccccc1)c1cccc(N2C(=O)C3C4C=CC(C4)C3C2=O)c1 (centres unmarked)	7.22%
CCNS(=O)(=O)c1ccc(NC(=O)Nc2ccc3c(c2)OCO3)cc1	8.21%
O=C(CSCC(=O)N1CCCCC1)OCC(=O)c1c[nH]c2ccccc12	-6.9%
CCOc1cccc(-c2c(C(=O)N/N=C/c3ccc(C)o3)nnn2-c2nonc2N)c1	13.7%
CC(NC(=O)c1nn(C)c(=O)c2ccccc12)c1ccccc1 (centres unmarked)	5.09%
COc1ccc(N2C(=O)CCC(C(=O)N(C)CCc3ccccn3)C2c2ccc(OC)c(OC)c2)cc1 (centres unmarked)	4.18%
